Over roughly 81,000 sequences, “one-hybrid fitness for binding NBS DNA” has its median near -0.1; the highest 2% begin near 0.36. The list shows a part of the results.
B1: Caulobacter ParB omega fusion; a variant is named by its letters at X, in order, B8GW30 (parent)
chain: MESVVVGEPGMSEGRRGLGRGLSALLGEVDAAPAQAPGEQLGGSREAPIEILQRNPDQPRRTFREEDLEDLSNSIREKGVLQPILVRPSPDTAGEYQIVAGERAWRAAQRAGLKTVPIMVRELDDLAVLEIGIIENVQRADLNVLEEALSYKVLMEKFERTQENIAQTIGKSXSHVANXMRLLXLPDEVQSYLVSGELTAXHARAIAAAADPVALAKQIIEGGLSVRETEALARKAPNLSAGKSKGGRPPRVKDTDTQALESDLSSVLGLDVSIDHRGSTGTLTITYATLEQLDDLCNRLTRGI

Variants of: B1
Assay: one-hybrid fitness for binding NBS DNA (the Noc-binding site; scaled: cognate 1, non-cognate 0); higher = stronger binding
Settings: with NBS DNA site
Procedure, shortened: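 Values were rescaled so that cognate is 1 and non-cognate is 0. Each is a fitness, the log change in a variant's read ratio to wild type from Illumina reads of plasmids before and after selection, with three replicate libraries pooled and variants under 10 reads dropped. Selection of the Caulobacter ParB libraries, four specificity codons randomised, used E. coli USO with a HIS3 reporter, site 19 bp from the promoter, on M9-minus-histidine with 0.1 mM IPTG and 5 mM 3-AT for 48 hours at 37°C.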

| Variant | one-hybrid fitness for binding NBS DNA |
| --- | --- |
| FHRY | ≤ 0.2 |
| PCSN | ≤ 0.2 |
| AAKG | ≤ 0.2 |
| NFVC | ≤ 0.2 |
| DWRR | ≤ 0.2 |
| TPYW | ≤ 0.2 |
| FGTY | ≤ 0.2 |
| GTHV | ≤ 0.2 |
| NGRC | ≤ 0.2 |
| QDFS | ≤ 0.2 |
| KQDR | ≤ 0.2 |
| SCTM | ≤ 0.2 |
| GNAI | ≤ 0.2 |
| MKDS | ≤ 0.2 |
| PPMG | ≤ 0.2 |
| LLAT | ≤ 0.2 |
| CNCG | ≤ 0.2 |
| REHV | ≤ 0.2 |
| LMRN | ≤ 0.2 |
| FFTF | ≤ 0.2 |
| DTKK | ≤ 0.2 |
| SDRQ | ≤ 0.2 |
| RFYI | ≤ 0.2 |
| SPKT | ≤ 0.2 |
| TETR | ≤ 0.2 |
| IAWS | ≤ 0.2 |

| Variant | one-hybrid fitness for binding NBS DNA |
| --- | --- |
| GICT | ≤ 0.2 |
| GVCD | ≤ 0.2 |
| ASGQ | ≤ 0.2 |
| AVTM | ≤ 0.2 |
| YWQR | ≤ 0.2 |
| RSIT | ≤ 0.2 |
| RLQK | ≤ 0.2 |
| ILTL | ≤ 0.2 |
| HIGC | ≤ 0.2 |
| TYKP | ≤ 0.2 |
| RPIG | ≤ 0.2 |
| QIKK | 0.243 |
| QQKL | 0.327 |
| PIKI | ≤ 0.2 |
| SRDV | ≤ 0.2 |
| CAPR | ≤ 0.2 |
| KILN | ≤ 0.2 |
| QRMI | 0.261 |
| NCFR | ≤ 0.2 |
| RIPM | ≤ 0.2 |
| KQKM | ≤ 0.2 |
| CSIL | ≤ 0.2 |
| WPCS | ≤ 0.2 |
| KLCP | ≤ 0.2 |
| TRFN | ≤ 0.2 |
| TCEE | ≤ 0.2 |

| Variant | one-hybrid fitness for binding NBS DNA |
| --- | --- |
| QAFG | ≤ 0.2 |
| LWGT | ≤ 0.2 |
| NTLF | ≤ 0.2 |
| AASE | ≤ 0.2 |
| HYPN | ≤ 0.2 |
| RSFS | 0.252 |
| QMVY | ≤ 0.2 |
| IFSG | ≤ 0.2 |
| WPLS | ≤ 0.2 |
| STHV | ≤ 0.2 |
| MQRC | ≤ 0.2 |
| AELS | ≤ 0.2 |
| EMFS | ≤ 0.2 |
| TWDS | ≤ 0.2 |
| DVAR | ≤ 0.2 |
| QRCV | 0.406 |
| VAGH | ≤ 0.2 |
| QPNF | ≤ 0.2 |
| HTTF | ≤ 0.2 |
| GTEN | ≤ 0.2 |
| DVGT | ≤ 0.2 |
| IRMC | ≤ 0.2 |
| TCCG | ≤ 0.2 |
| RVPD | ≤ 0.2 |
| YDFT | ≤ 0.2 |
| QMVT | 0.373 |

| Variant | one-hybrid fitness for binding NBS DNA |
| --- | --- |
| TKCS | ≤ 0.2 |
| QSGW | ≤ 0.2 |
| PYGP | ≤ 0.2 |
| VNLR | ≤ 0.2 |
| TQNP | ≤ 0.2 |
| FVTP | ≤ 0.2 |
| ADTN | ≤ 0.2 |
| PTCT | ≤ 0.2 |
| QPWV | ≤ 0.2 |
| ISRV | ≤ 0.2 |
| HLKA | ≤ 0.2 |
| QFQG | ≤ 0.2 |
| VPDR | ≤ 0.2 |
| PLLS | ≤ 0.2 |
| RTPS | ≤ 0.2 |
| MAVR | ≤ 0.2 |
| HMSL | ≤ 0.2 |
| PRSK | ≤ 0.2 |
| RTHE | ≤ 0.2 |
| WNDS | ≤ 0.2 |
| QEHM | ≤ 0.2 |
| NFDS | ≤ 0.2 |
| EGWS | ≤ 0.2 |
| DSYA | ≤ 0.2 |
| LEHT | ≤ 0.2 |
| QLLY | ≤ 0.2 |

| Variant | one-hybrid fitness for binding NBS DNA |
| --- | --- |
| DIGF | ≤ 0.2 |
| YTMG | ≤ 0.2 |
| RIAF | ≤ 0.2 |
| KSNS | ≤ 0.2 |
| SSDR | ≤ 0.2 |
| DSVV | ≤ 0.2 |
| IHSF | ≤ 0.2 |
| PGKS | ≤ 0.2 |
| CSSP | ≤ 0.2 |
| LAYV | ≤ 0.2 |
| MSNV | ≤ 0.2 |
| PLYC | ≤ 0.2 |
| MFMR | 0.215 |
| HRAG | ≤ 0.2 |
| LLWY | ≤ 0.2 |
| VAPK | ≤ 0.2 |
| REMD | ≤ 0.2 |
| QKHH | 0.205 |
| EVVM | ≤ 0.2 |
| AERE | ≤ 0.2 |
| LIGG | ≤ 0.2 |
| INES | ≤ 0.2 |
| RDKE | ≤ 0.2 |
| SMVV | ≤ 0.2 |
| WNRR | ≤ 0.2 |
| HKGT | ≤ 0.2 |

| Variant | one-hybrid fitness for binding NBS DNA |
| --- | --- |
| TDYC | ≤ 0.2 |
| QVIG | ≤ 0.2 |
| QCEC | ≤ 0.2 |
| RGEA | ≤ 0.2 |
| MSYC | ≤ 0.2 |
| VDNC | ≤ 0.2 |
| TLSL | ≤ 0.2 |
| PIET | ≤ 0.2 |
| QCRT | 0.857 |
| SRCL | ≤ 0.2 |
| QSTM | ≤ 0.2 |
| SAVN | ≤ 0.2 |
| RTDS | 0.219 |
| GGYY | ≤ 0.2 |
| TGNM | ≤ 0.2 |
| PEPQ | ≤ 0.2 |
| CTGC | ≤ 0.2 |
| QHYV | ≤ 0.2 |
| DPSN | ≤ 0.2 |
| QNHY | ≤ 0.2 |
| KDTK | ≤ 0.2 |
| QSLR | 0.452 |
| QKVY | ≤ 0.2 |

— a collection of fitness landscapes (doi:10.1016/j.celrep.2020.107928)
